Source: PubChem BioAssay AID1645887 (National Center for Advancing Translational Sciences (NCATS), 2021)
“And” between values parts separate entries of the source, which are not always exact repeats. Identical values can stand only once. Screen size: about 16,000 compounds; about 40 (0.2%) were called active. Inconclusive results (about 1%) are left out. Calls come from the whole dose curve; as a rule, active = well fitted activation curve with a large enough effect; inconclusive = small, poorly fitted or top-dose-only effect, or another doubt; inactive = no such curve, though single readings can be large or run the other way. Some of the results follow.

molecular target: Rap guanine nucleotide exchange factor 4 (Homo sapiens) (UniProt Q8WZA2); test: Validation qHTS for agonist of cAMP-regulated guanine nucleotide exchange factor 4 (EPAC2); settings: EPAC2 Rap1B BODIPY-GDP exchange, fluorescence; activation: active compounds read high;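 note: exchange makes BODIPY-GDP fluorescence drop when released from Rap1B; series mostly up to about 150 µM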
Procedure, shortened: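 Signal normalized against 6.5 mM cAMP as agonist control. Mix of EPAC2 (100 nM), RAP1B-BODIPY-GDP (250 nM) and GDP (50 uM) was read kinetically at 480/540 nm, every 5 min over 30 min, after 5 min room-temperature incubation with compound.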
% is set by controls: 0 for no effect and ±100 for the full control effect.

Sequence of UniProt Q8WZA2 (Q8WZA2 whole entry, looked up): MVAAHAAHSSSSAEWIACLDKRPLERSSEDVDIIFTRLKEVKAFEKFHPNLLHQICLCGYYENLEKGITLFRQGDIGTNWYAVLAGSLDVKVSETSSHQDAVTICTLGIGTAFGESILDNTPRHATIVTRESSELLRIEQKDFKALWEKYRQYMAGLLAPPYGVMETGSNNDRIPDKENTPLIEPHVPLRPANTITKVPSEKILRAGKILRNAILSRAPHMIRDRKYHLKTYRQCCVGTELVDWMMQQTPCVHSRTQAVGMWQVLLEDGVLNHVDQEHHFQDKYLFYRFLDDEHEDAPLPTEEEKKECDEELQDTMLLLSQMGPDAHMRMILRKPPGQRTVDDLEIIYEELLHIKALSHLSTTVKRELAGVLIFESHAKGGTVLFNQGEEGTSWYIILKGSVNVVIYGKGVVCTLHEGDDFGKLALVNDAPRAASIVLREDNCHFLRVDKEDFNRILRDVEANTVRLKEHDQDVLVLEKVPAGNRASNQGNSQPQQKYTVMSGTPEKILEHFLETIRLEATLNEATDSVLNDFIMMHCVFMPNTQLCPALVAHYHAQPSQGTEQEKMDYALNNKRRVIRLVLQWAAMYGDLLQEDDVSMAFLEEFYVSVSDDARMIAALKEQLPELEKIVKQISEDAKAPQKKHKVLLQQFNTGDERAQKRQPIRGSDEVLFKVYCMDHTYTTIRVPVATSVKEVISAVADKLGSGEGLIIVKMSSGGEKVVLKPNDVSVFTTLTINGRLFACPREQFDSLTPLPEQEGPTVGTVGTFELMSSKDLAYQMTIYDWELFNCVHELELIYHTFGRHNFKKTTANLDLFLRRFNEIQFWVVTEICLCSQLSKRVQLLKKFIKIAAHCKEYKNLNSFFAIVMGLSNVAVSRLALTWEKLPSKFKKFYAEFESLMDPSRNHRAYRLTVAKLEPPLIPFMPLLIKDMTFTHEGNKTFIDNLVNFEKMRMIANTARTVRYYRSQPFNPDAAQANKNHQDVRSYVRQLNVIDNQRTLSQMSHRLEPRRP

activation, inactive:
COc1ccccc1CNc1cc(-c2ccccc2C(F)(F)F)ncn1 -0.505%
Cc1cc(C)c(NC(=O)C[C@H](CC(=O)O)c2cccc3ccccc23)c(C(=O)N2CCC3(CCCC3)CC2)c1 -14.9%
CC(C)CCCC(C)C1CCC2C3CC=C4CC(O)CC[C@@]4(C)C3CC[C@@]12C (stereo partly drawn) -4.19%
CC(C)ON([C@@H](C(=O)NO)C(C)C)S(=O)(=O)c1ccc(-c2ccccc2)cc1 -28.3%
CN(C)c1ncc2nc(-c3cccs3)c(=O)n(-c3ccccc3)c2n1 18.3%
CCc1ccc2c(-c3cccc(Cl)c3)nc(=O)n(CC)c2n1 -4.25% and -2.78%
O=C(CCCCCCC(=O)Nc1ccccc1)NO -4.55% and -1.89%
CCCCCCCN(c1ccccc1)C1C[C@H]2CCCC(=O)N3CC[C@@H](C1)[C@@H]23 (stereo partly drawn) -31.5%
Cc1cccc(C(=O)NCC2Cc3cc(F)cc(-c4cnccn4)c3O2)n1 (stereo not drawn) -18.7%
CCOC(=O)C[C@H]1c2cc(F)ccc2S(=O)(=O)N1Cc1cc(OC)c(OC)c(OC)c1 -26.5%
CCC1OC(=O)C(C)[C@@H](O[C@H]2C[C@@](C)(OC)C(O)C(C)O2)C(C)[C@@H](O[C@@H]2OC(C)CC(N(C)C)C2O)[C@@](C)(O)CC(C)C2NC(COCCOC)O[C@H](C2C)[C@@]1(C)O (stereo partly drawn) -15.6%
NC[C@H]1O[C@H](O[C@H]2[C@H](O)[C@@H](O[C@H]3O[C@H](CO)[C@@H](O)[C@H](N)[C@H]3O)[C@H](N)C[C@@H]2N)[C@H](O)[C@@H](O)[C@@H]1O 1.43%
COc1cccc(-c2cncnc2NCc2ccccc2)c1 -25.9%
c1cnc2cc3c(cc2n1)C1CNCC3C1 -7.12%
CC[C@H]1OC(=O)C[C@@H](O)[C@H](C)[C@@H](O[C@@H]2O[C@H](C)[C@@H](O[C@H]3C[C@@](C)(O)[C@@H](O)[C@H](C)O3)[C@H](N(C)C)[C@H]2O)[C@@H](CC=O)C[C@@H](C)C(=O)/C=C/C(C)=C/[C@@H]1CO[C@@H]1O[C@H](C)[C@@H](O)[C@@H](OC)[C@H]1OC -5.32% and -4.91%
CCO[C@H](Cc1ccc(OCCc2ccc(OS(C)(=O)=O)cc2)cc1)C(=O)O 4.33%
COc1cc(O)ccc1CN1CCc2nnc(C(C)NC(=O)c3cc(F)ccc3F)n2CC1 (stereo not drawn) -11.1%
COc1ccccc1-c1ccnc(-n2ncc(C(=O)N3CCCCC3c3cccnc3)c2C)n1 (stereo not drawn) -4.5%
Cc1ccc(NC(=O)c2cccc(N(C)C)c2)cc1NC(=O)c1ccc(O)cc1 -22.2% and 2.43% and -9.05%
C[C@]12C[C@H](O)[C@H]3[C@@H](CCC4=CC(=O)CC[C@@]43C)[C@@H]1CC[C@@H]2C(=O)CO -5.78% and -24.9%
CN1C(=O)CCC1c1cccnc1 (stereo not drawn) -21.8% and 7.55%
O=S1(=O)CCOC[C@H](CC2CCCCC2)N1Cc1ccccc1F -21.2%
NC(=O)OC[C@@H]1[C@H](NC(=O)/C(=N\OCC(=O)O)c2csc(N)n2)C(=O)N1S(=O)(=O)O 2.3%
Cc1ccnc(N)c1 -11.5%
O=C(CCN1CCN(CCO)CC1)N1c2ccccc2Sc2ccc(C(F)(F)F)cc21 2.25%
COc1cc(-c2noc(C)c2C(=O)NCCc2c[nH]c3ccccc23)cc(OC)c1OC -28.3%
CN(C)C(=O)c1ccc(-c2ccc3ncnc(N(C)Cc4ccco4)c3c2)cc1 -7.43%
COc1ncc2nc(-c3ccc(Cl)cc3)c(=O)n(C)c2n1 12.9%
Cc1oc(-c2cccc(NC(=O)C3CCCN(C)C3)c2)nc1CNC(=O)c1coc2c1C(=O)CCC2 (stereo not drawn) -1.86%
CCCCC(CC)COC(=O)C(C#N)=C(c1ccccc1)c1ccccc1 (stereo not drawn) 19.5%
CCCC[C@H]1COCCS(=O)(=O)N1Cc1cccc([N+](=O)[O-])c1 -9%
Nc1ncnc2c1ncn2[C@@H]1O[C@H](COP(=O)(O)OP(=O)(O)O)[C@@H](O)[C@H]1O 10.5% and 12.2%
CC1CCC(C(C)C)[C@H](OC(=O)c2ccccc2)C1 (stereo partly drawn) 0.156%
O=c1cc(-c2ccccc2)oc2cc(O)cc(O)c12 -3.99% and -17.6% and -16.4%
c1csc(CNc2ncnc3ccc(-c4ccc5c(c4)OCO5)cc23)c1 -3.98%
CC1CN(CCC(=O)NC(c2cccnc2)C(F)(F)F)Cc2cc(Cl)ccc2O1 (stereo not drawn) 0.0876%
CCOC(=O)C[C@H]1c2cc(F)ccc2S(=O)(=O)N1C1CCCC1 -9.78%
CCN(Cc1ccncc1)Cc1ccc2c(c1)CN(C(=O)c1cccc3c(C)c(C)[nH]c13)CCO2 -7.98%
C1=C(CN2CCOCC2)COc2c1cccc2OC[C@@H]1CNCCO1 -18.7%
Oc1cc(O)cc(O)c1 -11.7%
COc1ccc(NC(=O)N2CC3(CCN(C(=O)c4csnn4)CC3)C2)cc1 1.54%
O=S(=O)(c1ccccc1)N1CCC2(CCCN(c3ncccn3)C2)CC1 9.61%
O=c1cnc2cnc(Nc3ccccc3)nc2n1Cc1ccc(F)cc1 -5.67%
O=S(=O)(c1ccccc1)N1CCC2(CCCN(c3ccccc3)C2)CC1 -21.6%
COc1cccc(CN2CCCC(c3nc(-c4ccncc4)ncc3-c3ccccc3C)C2)c1O (stereo not drawn) -21.6%
Cc1cc2nc3ccc(=[N+](C)C)cc-3sc2cc1N -3.42%
CCCCCCc1ccc(N2C[C@H](CCCCC)[C@@H](CC(=O)NCc3ccc(OC)cc3)C2=O)cc1 -14.2%
C=C[C@@]1(C)CC(=O)[C@]2(O)[C@@]3(C)[C@@H](O)CCC(C)(C)[C@@H]3[C@H](O)[C@H](OC(C)=O)[C@@]2(C)O1 -4.75%
